In PubChem BioAssay AID624417 (National Center for Advancing Translational Sciences (NCATS), 2012):
In all, about 410,000 compounds went through this assay and about 6,400 (1.6%) were called active. The inconclusive results got no clear call from the source; some entries with a clear call stand among them for comparison. Calls come from the whole dose curve; as a rule, active = well fitted inhibition curve with a large enough effect; inconclusive = small, poorly fitted or top-dose-only effect; inactive = no such curve, though single readings can be large or run the other way. Potencies of inconclusive entries are left out as doubtful fits.

Molecular target: Glucagon-like peptide 1 receptor (Homo sapiens) (UniProt P43220)
Experiment: qHTS of GLP-1 Receptor Inverse Agonists (Inhibition Mode); note: nearly all actives have a fitted effect of over 55% in size
Settings: HEK293 GLP-1R CRE-luciferase, luminescence, 24 h, GLP-1R form is constitutively active; series mostly up to 38.3 µM
How it was run: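 Assay principle: reduced luminescence from a cAMP-responsive reporter in HEK293 cells co-expressing a constitutively active GLP-1R. Conditions: 24 hr compound incubation, 37 deg C, 5% CO2.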
Potency is the fitted concentration of half-maximal effect; tags give direction and shape of the fitted curve.

Chain of UniProt P43220 (P43220 whole entry, looked up): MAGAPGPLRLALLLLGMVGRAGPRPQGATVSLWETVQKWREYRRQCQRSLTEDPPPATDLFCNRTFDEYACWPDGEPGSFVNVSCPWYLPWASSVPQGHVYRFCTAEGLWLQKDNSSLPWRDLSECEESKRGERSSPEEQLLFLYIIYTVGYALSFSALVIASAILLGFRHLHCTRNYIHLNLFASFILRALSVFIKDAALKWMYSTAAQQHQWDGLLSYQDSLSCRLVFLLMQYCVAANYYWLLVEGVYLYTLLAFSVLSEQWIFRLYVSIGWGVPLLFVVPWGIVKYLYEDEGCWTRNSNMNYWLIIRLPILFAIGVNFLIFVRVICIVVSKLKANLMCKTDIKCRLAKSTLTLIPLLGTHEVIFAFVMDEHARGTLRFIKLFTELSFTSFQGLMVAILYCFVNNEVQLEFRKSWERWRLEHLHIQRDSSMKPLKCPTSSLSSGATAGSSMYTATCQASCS

Row | Compound | Potency
1 | CCOC(=O)[C@]12CCC=C1N(Cc1ccc3c(c1)OCO3)C(=O)[C@H](CC(=O)NCc1cccc(C(F)(F)F)c1)C2 | inconclusive [inhibitor, partial curve, poor fit]
2 | COc1ccc(C(C(=O)NC2CCCCC2)N(C(=O)Cc2c[nH]c3ccccc23)c2ccccc2C)cc1OC (stereo unspecified) | inconclusive [inhibitor, partial curve, poor fit]
3 | COc1ccc(C(C)NC(=S)NCc2ccc(F)cc2)cc1 (stereo unspecified) | inconclusive [inhibitor, partial curve, poor fit]
4 | COc1ccc(Cl)cc1-n1c(CCC(=O)O)ccc1-c1ccc(C)cc1 | inconclusive [inhibitor, single point]
5 | O=C(CC1N=C2c3ccccc3N=C(SCc3ccccc3Cl)N2C1=O)NC1CCCCC1 (stereo unspecified) | inconclusive [inhibitor, single point]
6 | C#CCN(CC(=O)OCC)S(=O)(=O)CCNC1CC1 | inactive
7 | CCN1C(c2ccccc2)C(C)C(=O)C(C)C1c1ccccc1 (stereo unspecified) | inconclusive [inhibitor, partial curve]
8 | O=C1CN(c2ccc(Cl)cc2)C2(CCCCC2)S1 | inconclusive [inhibitor, single point]
9 | COc1ccc(NC(=O)c2cccc3ccccc23)cc1 | inconclusive [inhibitor, partial curve, poor fit]
10 | Nc1nc(N2CCCCC2)nc(N2CCCCC2)n1 | inconclusive [inhibitor, single point]
11 | CCOC(=O)CNC(=O)CN1CCCN(S(=O)(=O)c2ccc(Br)s2)CC1 | inconclusive [inhibitor, partial curve, poor fit]
12 | COc1cc(NS(=O)(=O)c2ccc(-n3cccn3)cc2)cc(OC)c1 | inconclusive [inhibitor, partial curve, poor fit]
13 | OC(c1ccc(Cl)c(F)c1)c1ncc(-c2ccc(F)cc2)[nH]1 (stereo unspecified) | inconclusive [inhibitor, single point]
14 | CCOc1ccc(S(=O)(=O)NCC(c2ccc3c(c2)OCO3)N2CCN(C)CC2)cc1 (stereo unspecified) | inconclusive [inhibitor, single point]
15 | Cc1ccc(CCNC(=O)CCn2c(=O)c3cccn3c3ccc(F)cc32)cc1 | inconclusive [inhibitor, single point]
16 | c1cc(SC2CCCCC2)cc(-c2nc3cnccn3c2NC2CCCCC2)c1 | inconclusive [inhibitor, partial curve, poor fit]
